Laboratory results: PubChem BioAssay AID1508642 (National Center for Advancing Translational Sciences (NCATS), 2021)
In all, about 43,000 compounds went through this assay and about 200 (0.47%) were called active. Another 12% or so got no clear call; they are omitted. The call rests on the fitted dose curve; in most records, active means well fitted cell-killing curve with a large enough effect; inconclusive means small, poorly fitted or top-dose-only effect, or effect the other way; inactive means flat fitted curve, though single readings scatter. This is one part of the list.

test: Cell viability qHTS assay in S16 Pmp22-F2sN cells; settings: S16 Pmp22-F2sN Schwann cells (luciferase reporters placed in the Pmp22 gene) viability, CellTiter-Glo, 24 h; series mostly up to 57.5 µM; activity change, negative = cytotoxicity: at the top concentration; further: nearly all actives have a fitted effect of over 65% in size
Procedure, shortened: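 Rat S16 Schwann reporter line, 24 h treatment with library compounds delivered at 23 nL per well. Cell viability by CellTiter-Glo luminescence.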
On the % scale 0 is the no-effect control and ±100 the full control effect.

SMILES | activity change, negative = cytotoxicity
Fc1ccc(Nc2nc(SCc3cccc(Cl)c3)nc3ccccc23)cc1 | inactive: -7.28%
COc1cc(Cl)c(C)cc1NC(=O)CCc1c(C)nc2c3cccnc3nn2c1C | inactive: -0.0472%
CS(=O)(=O)c1ccccc1-c1nnc(NC(=O)c2ccc3c(c2)OCCO3)o1 | inactive: -9.1%
COc1ccc(CNC(=O)CSc2n[nH]c(-c3ccc(F)cc3)n2)cc1 | inactive: -8.39%
COC(=O)c1ccccc1NC(=O)c1cnn(-c2ccc(F)cc2)c1-n1cccc1 | inactive: -6.32%
CCOc1ccc(-n2nc(CO)c(C(=O)NCc3ccccn3)n2)cc1 | inactive: -9.35%
CCCN(CCC)CCNC(=O)CN1C(=O)COc2ccc(S(=O)(=O)N3CCOCC3)cc21 | inactive: -11.1%
CCC(CC)C(=O)Nc1nnc(S(=O)(=O)N2CCc3ccccc32)s1 | inactive: 3.6%
Cc1cccc(OCC(=O)NCCc2nc3ccccc3[nH]2)c1C | inactive: 11.4%
O=C(NCc1ccccc1Cl)C1CCN(C(=O)N2CCOc3ccccc32)CC1 | inactive: -5.02%
COC(=O)CSc1nc2sc3c(c2c(=O)n1-c1ccc(C)cc1)CC(C(C)C)OC3 (stereo unspecified) | inactive: 0.381%
CCN(CC)S(=O)(=O)c1ccc2c(c1)N(CC(=O)Nc1ccc(OC)cc1)C(=O)CS2 | inactive: -7.12%
Cc1ccccc1CNC(=O)c1oc2c(c1C)-c1nn(Cc3ccc(Cl)cc3)cc1CC2 | inactive: -15%
CCOc1ccc(Cl)cc1CNCCCSc1nnnn1C | inactive: 1.48%
CCOc1ccc(NC(=O)C2CCCN(c3cnccn3)C2)cc1 (stereo unspecified) | inactive: 8.23%
COc1ccc(Br)cc1C(=O)Nc1ccc(-c2nc3ncccc3o2)cc1C | inactive: -0.194%
Cc1cccc(-n2c(N)cc(=O)nc2SCC(=O)Nc2ccc(F)cc2)c1C | inactive: -1.27%
CC(C)Cn1c(C2CC(=O)N(c3ccccc3Cl)C2)nc2ccccc21 (stereo unspecified) | inactive: 20.3%
Cc1oc(-c2ccc(C(=O)NCCN(C)C)cc2)nc1CS(=O)(=O)c1ccccc1 | inactive: 2.61%
O=C(Cn1nc(-c2ccccc2)nc(Cc2ccccc2)c1=O)Nc1ccc(Cl)cc1 | inactive: 0.0039%
Cc1cccc(NC(=O)Cn2nnc(C(=O)NCc3ccco3)c2N)c1 | inactive: 3.3%
Cc1ccc(C(=O)NCC(=O)OCc2cc(=O)n3ccsc3n2)cc1 | inactive: 3.93%
CCc1ccc(NC(=O)CSc2ccc3nc(-c4ccc(OC)cc4)cn3n2)cc1 | inactive: -6.01%
CCC(=O)N1CCc2cc(Br)cc(S(=O)(=O)N3CCC(C(=O)Nc4ccccc4F)CC3)c21 | inactive: -5.75%

SMILES | activity change, negative = cytotoxicity
CCOC(=O)CCC(=O)Nc1nnc2n1CCS2 | inactive: 15.1%
CC(=O)N1CCc2cc(S(=O)(=O)NC(CC(C)C)C(=O)NCc3ccccc3Cl)ccc21 (stereo unspecified) | inactive: -4.38%
Cc1ccc(C(=O)Nc2nnc(S(=O)(=O)N3CCCCCC3)s2)cc1 | inactive: -4.94%
COc1ccc(CNC(=O)CCc2c(C)c3cc4c(C)c(C)oc4cc3oc2=O)cc1 | inactive: -0.807%
O=C(Cn1ccn(-c2ccc(F)cc2)c(=O)c1=O)Nc1ccccc1C(F)(F)F | inactive: 2.56%
CCCCc1nn2c(=O)cc(COC(=O)c3ccccc3NC(=O)c3cccs3)nc2s1 | inactive: -3.95%
Cc1cc(C)cc(C(=O)n2nc(C)c(S(=O)(=O)N3CCCCCC3)c2C)c1 | inactive: -3.75%
O=C(Nc1ccc(Cl)cc1Cl)c1cc(S(=O)(=O)N2CCCCCC2)ccc1F | inactive: 4.1%
O=C1CC(c2cc(F)cc(F)c2)c2cc3c(cc2N1)OCO3 (stereo unspecified) | inactive: 12.9%
Cc1c(C(=O)N2CCN(c3ccc(F)cc3)CC2)sc2nc3n(c(=O)c12)CCC3 | inactive: -10.4%
CC1=C(C(=O)Nc2ccc(Cl)cc2)C(c2cccs2)n2nc(SCc3cccc(C)c3)nc2N1 (stereo unspecified) | inactive: 2.82%
Cc1ccc(NC(=O)c2cnc(SCC(=O)N3CCCc4ccccc43)n(C)c2=O)cc1 | inactive: -18.8%
CC(C)(C)OC(=O)N1CCC(c2c(C(=O)N3CCN(c4ccccc4F)CC3)cnn2-c2ccccc2Cl)CC1 | inactive: 11.1%
COc1cc(Cl)c(NC(=O)CCc2nc3cccnc3n2-c2ccccc2)c(OC)c1 | inactive: 17%
CC(=O)Nc1c(C)nn(-c2ccccc2)c1N1CCC(C(=O)NCc2cccc(Cl)c2)CC1 | inactive: -2.34%
CCOc1ccc(NC(=O)CCNS(=O)(=O)c2ccc3c(c2)CCCC(=O)N3)cc1 | inactive: 14.4%
CC1CCc2onc(C(=O)N3CCN(c4ccc(F)cc4)CC3)c2C1 (stereo unspecified) | inactive: -6%
CCCCCN1C(C(=O)c2ccccc2)=C(NC(=O)c2ccc(C)cc2)c2ccccc2S1(=O)=O | inactive: -21.5%
CCOc1ccc(NC(=O)c2c(NCc3cccnc3)sc3c2CCC(C)C3)cc1 (stereo unspecified) | inactive: -2.6%
CCN(CC)C(=O)Cn1c(=O)n(-c2ccc(C)c(C)c2)c(=O)c2c(C)c(C(=O)N(CC)CC)sc21 | inactive: -18.6%
CC(=O)c1sc(NC(=O)c2c(-c3ccccc3)c(-c3ccccc3)nn(C)c2=O)nc1C | inactive: -4.85%
CCN1CCN(C(=O)c2cnn(-c3ccc(F)cc3F)c2C2CCN(C(=O)OC(C)(C)C)CC2)CC1 | inactive: 8.71%
COc1ccc(OC)c(NC(=O)c2cnc(Nc3ccc(C)c(Cl)c3)c3ccccc23)c1 | inactive: 19.6%
Cc1ccc(-n2ncc3c(N(C)C)ncnc32)cc1Cl | inactive: 1.31%

SMILES | activity change, negative = cytotoxicity
CCC(Sc1nc(-c2ccccc2)[nH]c1S(=O)(=O)c1ccc(C)cc1)C(=O)O (stereo unspecified) | inactive: 3.18%
O=C(NCCCN1CCN(c2ccc(F)cc2)CC1)c1cc2c(Cl)nc3ccccc3c2s1 | inactive: 16.4%
CC(C)c1ccc(-c2noc(SCC(=O)N3CCCCC3C)n2)cc1 (stereo unspecified) | inactive: -6.8%
Cc1cc(C)cc(OC(=O)c2cc(-c3ccc(Cl)cc3)on2)c1 | inactive: 3.09%
Cc1cccc(-c2nc(CCNC(=O)c3ccc(Br)o3)cs2)c1 | inactive: -7.54%
Cc1ccc(-c2nnc(Nc3ccc(C(N)=O)cc3)c3ccccc23)cc1S(N)(=O)=O | inactive: -2.59%
COc1ccc(NC(=O)Cn2c(=O)c3cccn3c3ccccc32)cc1Cl | inactive: 11.7%
COc1cccc2sc(NC(=O)c3ccc(S(=O)(=O)N4CCC(C)CC4)cc3)nc12 | inactive: -20.4%
COc1ccc(N2CCN(C(=O)C3CCN(S(=O)(=O)c4cccc5nonc45)CC3)CC2)cc1 | inactive: -2.67%
CCN1CCN(CCCNC(=O)CS(=O)(=O)Cc2nc(-c3ccccc3C)oc2C)CC1 | inactive: 25.9%
Cc1nnc(N2CCCC(C(=O)NCCN(C)C)C2)c2nn(-c3ccccc3)c(C)c12 (stereo unspecified) | inactive: -10.2%
CCOc1ccc(CNCc2c(C(=O)O)c(C)n(Cc3ccc(C)cc3)c2C)cc1 | inactive: -8.37%
CCOc1ccccc1OCCCCn1c(-c2ccc(Cl)cc2)nc2ccccc2c1=O | inactive: -6.22%
COc1ccc(C)cc1NC(=O)Nc1cc(C(=O)NCc2ccc(C)cc2)ccc1N1CCCC1 | inactive: -22.8%
COc1ccc(-c2nc3sc(CCNC(=O)Cc4ccc(F)cc4)c(C)n3n2)cc1 | inactive: -7.2%
Cc1sc(-c2cc3ccccc3oc2=O)nc1-c1ccc(Cl)c(Cl)c1 | inactive: -1.48%
COc1ccc(-c2c(C)nn3c(-c4ccccc4)cc(C)nc23)cc1OC | inactive: -21.9%
O=C(Cn1ncc2c3ccccc3n(Cc3cccc(Cl)c3)c2c1=O)NCCCc1ccccc1 | inactive: 1.57%
Cc1cccc(C)c1NC(=O)Cn1cc(C(=O)c2ccco2)c2ccccc21 | inactive: -4.93%
Cc1cc(C)n(C(C)CC(=O)Nc2cccc(C#N)c2)n1 (stereo unspecified) | inactive: 0.593%
CCc1nc(Nc2ccc(F)c(Cl)c2)c2c3c(sc2n1)CCCC3 | inactive: 2.26%
CCOc1ccc(-c2nn(-c3ccc(F)cc3)c3c2cnc2ccc(F)cc23)cc1 | inactive: 12.6%
Cc1cc(O)c(C(c2ccccc2)N2CCN(c3ccccc3)CC2)c(=O)n1Cc1ccco1 (stereo unspecified) | inactive: 3.12%
Cn1c(=O)c2c(nc(NCCCCO)n2Cc2ccccc2Cl)n(C)c1=O | inactive: -3.46%

SMILES | activity change, negative = cytotoxicity
CN1C(=O)CC(C(=O)Nc2ccc(C(=O)O)cc2)SC1=Nc1ccc(Cl)cc1 (stereo unspecified) | inactive: 9.33%
CCc1cccc(C)c1NC(=O)CCCn1c(C)c2cnn(-c3ccccc3)c(=O)c2c1C | inactive: -11.5%
CCCCOC(=O)c1ccc(OC(=O)c2sc3ncn(Cc4cccc(F)c4)c(=O)c3c2C)cc1 | inactive: 4.22%
CCOC(=O)c1[nH]c(C)c(CCC(=O)Nc2ccccc2OCC)c1C | inactive: 0.274%
CCC(C)NC(=O)Cn1c(=O)n(CCCCCC(=O)Nc2ccccc2)c(=O)c2sccc21 (stereo unspecified) | inactive: 3.71%
CC(=O)c1ccc(NC(=O)C(C)n2nc(-c3ccccc3)ccc2=O)cc1 (stereo unspecified) | inactive: -7.98%
CCn1c2ccccc2c2cc(CN3CCN(Cc4ccc(Cl)cc4)CC3)ccc21 | inactive: -10.4%
Cc1ccc2c(=O)cc(C(=O)Nc3ccc(S(=O)(=O)N4CCCCC4C)cc3)oc2c1C (stereo unspecified) | inactive: -4.68%
CCN(CC)c1ccc(NS(=O)(=O)c2cc(-c3onc(C)c3C)ccc2OC)c(C)c1 | inactive: -4.12%
CCN(CC)CCCNC(=O)Cn1ncc2c3ccccc3n(Cc3ccccc3)c2c1=O | inactive: 14.9%
COc1cccc(-c2nnc(SCC(=O)N(C)c3ccccc3)o2)c1 | inactive: 0.0321%
CC(=O)Nc1cc(C(=O)NCc2ccc(F)cc2)ccc1S(=O)(=O)c1ccc(C)cc1 | inactive: -1.42%
Cc1c(CNC2CCC(C)CC2)c(C(=O)O)c(C)n1Cc1ccc(Cl)cc1 (stereo unspecified) | inactive: 1.4%
CCOC(=O)C(CC)Sc1ncnc2c1c(-c1ccccc1)cn2-c1ccc(OC)cc1 (stereo unspecified) | inactive: 2.08%
Cc1ccc(C)c(N(C)C(=O)c2cc3c(s2)-c2ccccc2OC3)c1 | inactive: 13.4%
CCn1c(=O)c2cc(C(=O)NCc3ccc(F)cc3Cl)sc2c2ccccc21 | inactive: 12.4%
Cc1cc(C)c(OCC(=O)N(Cc2ccc(N(C)C)cc2)CC2CCCO2)c(C)c1 (stereo unspecified) | inactive: -12.9%
Cc1cc(=O)n(CC(=O)N2CCCc3ccccc32)c2c1c(C)nn2-c1cccc(F)c1 | inactive: -1.29%
CCS(=O)(=O)N1CC(=O)N(c2ccc(Cl)cc2C)C(C)(C(=O)NC2CCCCC2)C1 (stereo unspecified) | inactive: -0.0837%
O=C(NCCc1ccc(F)cc1)C(=O)NCC(c1cccs1)S(=O)(=O)c1ccc(Cl)cc1 (stereo unspecified) | inactive: -5.35%
O=C(CSc1nnc(-c2ccccc2)c(-c2ccccc2)n1)NCCc1ccccc1 | inactive: -11%
Cc1ccc(CNC(=O)CN(C)S(=O)(=O)c2ccc3c(c2)c(=O)n(C)c(=O)n3C)cc1 | inactive: 1.86%
CCOc1ccc(N(C)S(=O)(=O)c2cc(-c3cc(C)no3)ccc2OC)cc1 | inactive: -18.1%
COC(=O)c1c(NC(=O)COc2ccc(C)cc2Br)sc2c1CCCC2 | inactive: 1.92%
